# In all, about 33,000 sequences were measured (“E-score (-0.5 to 0.5)”: median about -0.021, highest 2% from about 0.32 on). This is one part of the list.
# Molecular target: T1, Zap1 (UniProt P47043)
# T1 sequence: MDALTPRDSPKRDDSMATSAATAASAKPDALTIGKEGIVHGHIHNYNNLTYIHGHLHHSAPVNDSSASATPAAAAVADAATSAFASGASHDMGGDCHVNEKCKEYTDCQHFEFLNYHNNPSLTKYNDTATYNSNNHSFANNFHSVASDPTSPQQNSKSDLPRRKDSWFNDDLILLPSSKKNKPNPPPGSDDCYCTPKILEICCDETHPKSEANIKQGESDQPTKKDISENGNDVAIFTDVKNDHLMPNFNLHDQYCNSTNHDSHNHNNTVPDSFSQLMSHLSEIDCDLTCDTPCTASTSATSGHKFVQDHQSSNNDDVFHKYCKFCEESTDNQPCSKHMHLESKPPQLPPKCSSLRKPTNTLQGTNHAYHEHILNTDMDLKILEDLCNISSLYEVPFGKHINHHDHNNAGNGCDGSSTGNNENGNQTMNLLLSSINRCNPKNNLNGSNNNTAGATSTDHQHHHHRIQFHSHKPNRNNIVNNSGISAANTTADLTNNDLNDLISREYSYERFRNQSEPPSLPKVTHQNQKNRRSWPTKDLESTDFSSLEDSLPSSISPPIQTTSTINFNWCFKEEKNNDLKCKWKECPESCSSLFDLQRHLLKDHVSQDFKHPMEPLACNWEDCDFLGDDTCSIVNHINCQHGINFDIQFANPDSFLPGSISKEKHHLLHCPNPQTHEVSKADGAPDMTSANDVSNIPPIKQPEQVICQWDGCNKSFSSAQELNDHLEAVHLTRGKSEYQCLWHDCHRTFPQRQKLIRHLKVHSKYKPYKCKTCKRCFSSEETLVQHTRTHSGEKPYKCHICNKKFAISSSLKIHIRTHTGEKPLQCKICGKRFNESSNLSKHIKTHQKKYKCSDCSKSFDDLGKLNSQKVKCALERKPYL
# Experiment: PBM E-score (8-mer binding enrichment) (E-score (-0.5 to 0.5)); higher = stronger / more preferred TF binding; most listed sequences are background and not binding sites
# Settings: protein concentration: 200 nM; construct: GST-full length
# Method in brief: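 Detection of bound protein used fluorescent anti-GST, with scans normalised by masliner. The proteins were GST-tagged yeast transcription factors applied at about 100-200 nM to universal all-10-mer Agilent arrays made double-stranded by primer extension. Each ungapped eight-base word, pooled with its reverse complement, was scored with an E-score from the Universal PBM Analysis Suite.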
row,Sequence,PBM E-score
1,AAATATTC,0.157
2,GGGTAACC,0.46
3,AAATAGAA,-0.0601
4,GTCTGGGA,0.006
5,CCCTTGGC,0.00076
6,CGATTTAG,0.105
7,GGCACTAC,-0.143
8,AAGTCGGT,-0.219
9,GTTCGTTA,0.109
10,GCGCTAAA,0.0289
11,CGGTTGAG,-0.00869
12,GAGTCGCC,-0.307
13,GGTACTGA,0.163
14,ACTATTCC,0.109
15,ATGTGCGG,-0.0642
16,TGCTGGAA,-0.189
17,GGCCGAGA,0.0129
18,ACGCCAAC,-0.16
19,ACCTTGCC,-0.043
20,GTTACTGA,0.171
21,GGCGTTGA,-0.126
22,CAACACAG,-0.0159
23,AGAACACG,0.0336
24,AACGCGTA,-0.165
25,CCAAGTGC,-0.0804

row,Sequence,PBM E-score
1,GACCCGGA,0.118
2,CATACCCG,0.304
3,GACATGGC,-0.168
4,GGAATCAA,0.103
5,ACACGCCC,-0.209
6,GAGTACAA,0.0653
7,ATAGTGAA,-0.0126
8,CGGACAAC,0.129
9,CCCGAGCA,-0.298
10,CGAACGGA,-0.0657
11,AATAATGT,0.0206
12,CACATGAC,-0.0975
13,AAAAGCTG,-0.218
14,ACAAACAT,0.0357
15,CCAGAGTC,0.0266
16,GTAACGCA,0.0614
17,ACACGGGT,0.14
18,ATTCAGTA,0.0794
19,CCAGCTAA,-0.0304
20,ATGTCTTA,-0.00067
21,GTGATGAA,0.0445
22,GACCGGCA,-0.144
23,ACCTACAC,0.0316
24,TCCCAAGA,-0.0673
25,GTAATGCA,-0.157

row,Sequence,PBM E-score
1,ACCTCTCG,0.166
2,AGGCAGTG,-0.0761
3,ATGTAGCG,-0.153
4,ATAGAGGA,-0.186
5,AGGCCGCC,-0.196
6,ACCGGCCA,0.0682
7,GAGATCCC,-0.147
8,AATGGATC,-0.021
9,ACCTCAGA,0.214
10,GAGATAAA,0.0437
11,TGTGGTAA,0.216
12,AGTCACAT,-0.132
13,ATCCTCGA,0.0274
14,TAATCGGA,-0.00292
15,CTCACAAC,0.181
16,CGTTAAGA,-0.0174
17,CGCGAGAG,0.00964
18,ACGGAAAA,0.0966
19,AACCGGAC,0.0813
20,ATGGTCAC,0.312
21,ATCCCAGA,-0.0394
22,TCTATGAA,-0.0101
23,CCAAAACA,0.13
24,CCACAGAG,0.0203
25,ACCTGCCA,0.00285

row,Sequence,PBM E-score
1,GGCTGCAA,0.0548
2,TGCTTCAA,0.0233
3,ACATTCCA,-0.152
4,AATAGAGT,-0.109
5,CAAGTGAG,-0.196
6,CAATGTAA,0.142
7,TAAAACGA,0.0235
8,ATGTACCC,0.216
9,ACAACCAG,0.23
10,AAAACCGA,0.0886
11,AGCAGGGA,-0.239
12,ATTAATCA,0.218
13,CCTGAAGA,0.0193
14,GAACGACC,0.0425
15,TCATGACA,0.167
16,TCCCGTCA,-0.0275
17,CTCCACAG,-0.268
18,CGCGATGA,0.181
19,AATGTCTG,-0.121
20,AATCGAGG,0.117
21,CCTGCGAA,0.0804
22,GCGTCGAA,0.0421
23,CAGCAGAA,-0.0338
24,CCCATCCC,0.0022
25,CTAACTAG,0.0959

row,Sequence,PBM E-score
1,AAACATCC,0.0186
2,CTACACGA,0.159
3,AACATGAG,-0.0271
4,ATGGCAAA,-0.133
5,AATGTATC,0.107
6,AGAAGAAC,0.0131
7,CGCATGAA,-0.0347
8,CACACACA,0.00095
9,AGGCACAT,-0.132
10,ACTATGAC,0.0225
11,ATTTGTCG,0.101
12,AAATTACG,0.112
13,ACGAACTG,-0.287
14,AGGGATGC,-0.32
15,AAGCCTTG,-0.218
16,ACGTAAGT,-0.213
17,CCTATCCA,-0.293
18,ACCTTGAA,0.337
19,GCCTGGCC,-0.299
20,ATACGATA,0.0936
21,CCGGAGCC,-0.166
22,GACTATGC,-0.0408
23,AGGGCTAT,-0.149
24,ACCTAGTC,-0.0824
25,TCACATCA,0.0904

row,Sequence,PBM E-score
1,CCTCATGA,0.201
2,GACCACCC,0.108
3,TACACGAA,-0.0152
4,ATCCGTTG,-0.0685
5,ATGGATGA,-0.0452
6,CAAGAGGG,-0.0193
7,AACGTATG,-0.0203
8,ACCACCCG,0.184
9,CGGGAGAA,-0.053
10,TACGGGAA,0.159
11,AGGAGTTA,0.169
12,ACTAATCA,0.0612
13,CAATTTCG,0.0129
14,ACGACATC,-0.237
15,CACTACCC,0.367
16,ACTGGCGA,-0.157
17,CTGCCGAA,-0.128
18,AATGGAAG,-0.0451
19,CCTGGAAG,-0.104
20,ACACCGAG,0.0553
21,CAGGATCG,-0.225
22,AAAGAGAG,-0.111
23,ACTAGCGC,-0.171
24,CCCGGAAA,0.166
25,AGTCATCC,-0.299

row,Sequence,PBM E-score
1,CATAAGGA,0.0809
2,CAGCCCGG,0.0449
3,GCGCGTAC,-0.104
4,CCCATCGG,0.0241
5,AGGCTCTA,-0.204
6,CTCCGACA,-0.0298
7,ACTCTTGG,0.0055
8,TCAAGAGA,0.0264
9,ATCGCTCC,-0.217
10,CCATCCAC,-0.173
11,TCATATCA,-0.0636
12,AACTGATC,0.0176
13,ATTATCAA,0.105
14,CCGCAACG,0.0923
15,ATAGGGTG,0.214
16,GTTGGATA,-0.0536
17,ACCTTCCC,0.065
18,CTAGCACC,0.0633
19,AAACGCAG,-0.0182
20,GACTGGTA,-0.0348
21,AGCACTTG,-0.31
22,AAGTTCAG,-0.0476
